In the supplement of paper PMC3334620:
In all, about 33,000 sequences were measured (“E-score (-0.5 to 0.5)”: median about -0.054, highest 2% from about 0.35 on). The list shows a part of the results.

Molecular target: T1, Stb5 (UniProt P38699)
T1 sequence: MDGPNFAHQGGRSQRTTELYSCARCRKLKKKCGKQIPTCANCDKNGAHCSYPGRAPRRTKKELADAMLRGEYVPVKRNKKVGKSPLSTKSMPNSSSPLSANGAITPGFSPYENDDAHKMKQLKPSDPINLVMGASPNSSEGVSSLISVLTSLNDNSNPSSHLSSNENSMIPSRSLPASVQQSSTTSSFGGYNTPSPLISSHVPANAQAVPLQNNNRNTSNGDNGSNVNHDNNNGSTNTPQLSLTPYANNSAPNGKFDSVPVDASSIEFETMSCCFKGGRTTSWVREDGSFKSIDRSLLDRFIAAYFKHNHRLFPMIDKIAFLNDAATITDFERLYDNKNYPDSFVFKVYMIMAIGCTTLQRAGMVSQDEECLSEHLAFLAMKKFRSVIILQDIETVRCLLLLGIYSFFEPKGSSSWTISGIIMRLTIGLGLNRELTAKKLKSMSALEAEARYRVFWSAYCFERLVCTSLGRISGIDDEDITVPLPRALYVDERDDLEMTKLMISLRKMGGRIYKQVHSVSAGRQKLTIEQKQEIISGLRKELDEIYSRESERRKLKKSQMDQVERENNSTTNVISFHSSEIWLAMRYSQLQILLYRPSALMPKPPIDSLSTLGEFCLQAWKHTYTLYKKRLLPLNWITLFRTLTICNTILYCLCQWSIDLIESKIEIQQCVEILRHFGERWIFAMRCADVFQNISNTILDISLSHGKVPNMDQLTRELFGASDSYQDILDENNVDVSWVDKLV
Assay: PBM E-score (8-mer binding enrichment) (E-score (-0.5 to 0.5)); higher = stronger / more preferred TF binding; most listed sequences are background and not binding sites
Conditions: protein concentration: 200 nM; construct: GST-full length
Procedure, shortened: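 Each ungapped eight-base word and its reverse complement, pooled, received an E-score from the Universal PBM Analysis Suite. Underlying scans, normalised with masliner, recorded fluorescent anti-GST bound to GST-tagged yeast transcription factors. These were applied at about 100-200 nM to universal all-10-mer Agilent arrays double-stranded by primer extension.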

Sequence | PBM E-score
GTATCCAC | -0.0267
TTAGCAAA | 0.0559
AAAGTGCG | 0.159
ATTCATAG | -0.17
CAATTGGC | -0.167
CCGGAGCA | 0.264
ACCGAACA | 0.168
GCTTGTAC | -0.0129
AGCTCTGC | -0.343
TGTACAAA | -0.0295
AGAGTTAG | -0.129
CTGTATAA | -0.0702
AGCTTGCG | -0.0618
AATGTAGA | -0.152
CATCCAGC | -0.0401
CCATGGCC | -0.0436
AGGCGTCC | -0.0957
GGCGGAAC | 0.25
AACAAAAG | -0.054
GAGCTAGA | -0.0326
GACTCTTA | -0.0543
CCCTGAAC | -0.0556
CTCTGAGA | -0.193
ACAATCAT | -0.252
AAGCGAAG | -0.0821

Sequence | PBM E-score
ATGTCTTG | -0.0666
AGTGAATG | 0.137
TACGATCA | -0.323
GCGCAAGA | -0.138
ATAGCGCA | -0.0665
CGTGTATA | 0.111
CTTACTAA | -0.0783
GATGAGAC | -0.136
CGGGTCAG | 0.112
CGCGAAAG | 0.0124
CTGCCTTC | -0.21
GCTCACCC | -0.0631
AACATCAT | -0.176
AAGGCCAA | -0.139
AAGCCCAT | -0.0309
AGACCTAT | -0.14
CCTATTGA | -0.265
AAGAGGAG | -0.135
ATACCTAG | -0.233
GAGTTATC | 0.115
CACCTTTA | -0.129
AGTGTGTA | -0.136
CATCCCAC | -0.00896
GATTCAAA | -0.202
CCTGACAC | -0.0445

Sequence | PBM E-score
ACGCCCCG | 0.188
CGGCGCCA | 0.377
CAGAGCCG | -0.0711
GATAGTGC | -0.0287
ACTAATGG | 0.033
CAAATTCA | -0.118
AATGTCCA | -0.0901
ACACCACT | -0.0749
CCACCCGC | 0.0272
GTTTGGGA | -0.2
AACAAGCT | -0.163
GTAATTGA | 0.175
GACCGGGA | 0.248
CTAGCTAC | -0.214
ATGGCAAT | -0.208
GATTTACC | 0.24
AGCTCACC | -0.0411
AGTCCGAG | 0.237
ACAACCAT | 0.0398
AGCACTGG | -0.105
TACTACTA | 0.0732
CCACTGAG | -0.275
GATCCAAA | -0.253
ACCGCATC | 0.127
CGCGATTC | 0.134

Sequence | PBM E-score
AGATCACC | -0.0404
AGTACAGA | -0.173
TACCGGGA | 0.293
AACATTAA | 0.00533
ACACTCGT | -0.131
CTCATCTA | -0.105
CGAATCAG | -0.224
CCATTCCA | -0.0271
CTGGGAGC | -0.0302
AGGAGGGC | -0.181
CGGAGACA | 0.398
CCATACCC | 0.0983
GGCACCGA | 0.351
CTGTGGGC | -0.127
AAAACATC | -0.0882
CAACAGAG | -0.0253
AACGCGTC | -0.0218
GCGAAATA | 0.00371
GAAGCAAC | -0.137
CGCGGTGA | 0.359
ACCCTTAT | -0.149
CCCCCGGA | 0.166
AATCGCGC | 0.15
AAAATTCG | -0.00243
AGATATCA | -0.00944

Sequence | PBM E-score
TGGTATAA | 0.0916
GAACTTCC | 0.0586
CATAGCGC | 0.161
CATAACGC | 0.0732
TAAGCTCA | -0.126
AAGCTCAG | -0.273
AAACGAAA | -0.0418
CGTTTGAG | 0.0195
CCACACGA | -0.15
TAGGAACA | -0.128
GTTCCCCA | -0.0221
AACGCGTT | -0.102
GATGTGAA | -0.195
AAACTTCC | 0.141
GATATACC | 0.201
AAGTTTGC | -0.102
CGAGAAAG | -0.067
CGAGCAGA | -0.166
GCCGCGGC | 0.331
AACGCACA | -0.0197
ATCATGGA | -0.291
ATTTCCTC | -0.068
CATAGCGG | 0.28
AACTCGTA | -0.179
CGCTCTGC | 0.0745

Sequence | PBM E-score
CATGCGCG | -0.0122
ATCGATCC | 0.0714
CTACGAGA | -0.102
ATGCTTGG | -0.259
ATTTTTCA | 0.078
AGAAGAGA | -0.219
AAGAAGTC | -0.0148
CCTCCCCG | 0.185
TAACCGCA | 0.0848
CGATCAAA | -0.0222
AGGAATTA | -0.00087
GGTCCGAC | 0.411
AATGGAGC | -0.142
GGGTTAAA | 0.243
CTTCTGTA | -0.09
CAGTTTCG | -0.093
GCGACCGA | 0.132
AACTTCCC | -0.179
CAAACAGG | -0.167
CAGCGGGC | 0.224
CCGCCCCC | 0.335
AATACAAG | -0.113
CAGCTCCA | -0.295
CTCGAAAC | -0.0616
CACACGGG | 0.105

Sequence | PBM E-score
AAGCAAAA | -0.27
GCTTCATA | 0.0806
CTGTGGGA | -0.127
CAAATACA | -0.133
TAGAGAAA | -0.214
GCGATAGC | -0.117
CTAATTTC | -0.126
ACCAGATG | -0.22
CCAGACCC | -0.147
CAGATTCG | 0.0701
CGGGCCCC | 0.205
AGGCGCCA | 0.041
GGTGACAC | 0.215
CCGAGGGA | -0.0438
GGGACTCA | -0.0395
TCGCACGA | -0.0994
AATCATGA | -0.136
CCTGCTCC | -0.0646
AGTTTGGC | -0.0382
TCAAGACA | -0.128
CCAAGTCA | -0.0966
AATAAAAG | 0.0231
